Tested on: NL4-3IN-R263K
Assay type: cell-based
Details: p24

## C[C@H]1N2C(=O)c3c(O)c(=O)c(C(=O)NCc4ccc(F)cc4F)cn3C[C@@H]2OCC12CC2 [ACC017]
  FC (Fold Change) EC50 (NL4-3IN-R263K)/EC50 (NL4-3): 16.52

Reference: publication PMC12846677 (Viruses, 2025)
